# Measured values from the supplement of paper PMC3334620.
# In all, about 33,000 sequences were measured (“E-score (-0.5 to 0.5)”: median about -0.035, highest 2% from about 0.35 on). The list shows a part of the results.
# Molecular target: T1, Pdr3 (UniProt P33200)
# T1 sequence: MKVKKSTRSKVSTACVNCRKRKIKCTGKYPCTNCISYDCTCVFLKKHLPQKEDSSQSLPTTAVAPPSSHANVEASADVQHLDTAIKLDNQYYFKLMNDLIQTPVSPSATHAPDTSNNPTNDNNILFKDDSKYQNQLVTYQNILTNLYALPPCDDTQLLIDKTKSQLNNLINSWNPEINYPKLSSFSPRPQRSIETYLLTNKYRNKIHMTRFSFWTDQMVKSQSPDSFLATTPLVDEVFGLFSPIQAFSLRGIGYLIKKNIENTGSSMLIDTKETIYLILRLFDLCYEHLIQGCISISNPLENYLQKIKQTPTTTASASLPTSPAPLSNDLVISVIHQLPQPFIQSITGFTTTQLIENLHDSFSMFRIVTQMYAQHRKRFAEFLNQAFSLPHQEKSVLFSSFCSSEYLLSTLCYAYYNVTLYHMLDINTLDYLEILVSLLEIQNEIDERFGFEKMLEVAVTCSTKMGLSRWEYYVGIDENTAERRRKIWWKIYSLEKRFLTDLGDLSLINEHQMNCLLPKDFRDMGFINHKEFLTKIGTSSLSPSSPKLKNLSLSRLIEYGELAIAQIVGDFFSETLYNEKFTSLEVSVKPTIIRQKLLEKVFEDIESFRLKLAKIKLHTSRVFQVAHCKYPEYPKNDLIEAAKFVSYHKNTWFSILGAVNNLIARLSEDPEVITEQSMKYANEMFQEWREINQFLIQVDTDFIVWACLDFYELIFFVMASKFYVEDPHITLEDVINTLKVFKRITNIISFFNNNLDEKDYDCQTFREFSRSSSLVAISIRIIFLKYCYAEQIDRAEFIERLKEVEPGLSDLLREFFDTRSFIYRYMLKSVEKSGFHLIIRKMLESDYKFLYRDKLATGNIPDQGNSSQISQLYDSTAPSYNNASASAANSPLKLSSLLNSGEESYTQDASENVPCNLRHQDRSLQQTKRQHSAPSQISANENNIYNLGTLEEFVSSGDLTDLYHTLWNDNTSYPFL
# Assay: PBM E-score (8-mer binding enrichment) (E-score (-0.5 to 0.5)); higher = stronger / more preferred TF binding; most listed sequences are background and not binding sites
# Conditions: protein concentration: 200 nM; construct: GST-full length
# Protocol: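 Universal 'all 10-mer' protein binding microarrays (Agilent AMADID 015681) probed with GST-tagged S. cerevisiae TFs (full-length or DBD) made by in vitro transcription/translation (PURExpress), about 100-200 nM. Bound TF was detected with fluorescent anti-GST. Each ungapped 8-mer (which stands for itself and its reverse complement) is scored by the PBM enrichment score (E-score), a modified Wilcoxon-Mann-Whitney statistic from -0.5 to +0.5, computed with the Universal PBM Analysis Suite. Scale: above 0.35 generally sequence-specific binding.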
row,Sequence,PBM E-score
1,AATAGGAA,-0.111
2,TGCCGAAA,0.118
3,CCGCTATA,0.155
4,AATTCGAT,0.0319
5,GTACTCAA,0.0452
6,ACGTGGGA,-0.234
7,AGGCTATC,-0.0213
8,AGAGGTTA,-0.0967
9,GGGGGTAA,-0.255
10,AAGTTAGT,-0.0202
11,ACAGGGTA,-0.12
12,GGGGGGGA,-0.311
13,AAGTAACG,0.0311
14,GATGAGGA,-0.182
15,GGATTGAA,0.105
16,AGGCGTTC,-0.111
17,ATTCGAGC,-0.133
18,TATAGACA,-0.152
19,GTATGAAA,0.0233
20,CCCCTGCC,-0.0684
21,AACAGGGT,-0.0562
22,TCACATGA,-0.231
23,GAATACGA,0.0256
24,GGGGACAA,0.17
25,AACTACTG,0.025

row,Sequence,PBM E-score
1,CACGAGTA,-0.0205
2,ATGGATAG,-0.0286
3,ATAGACAA,0.0285
4,AGTTGCGC,0.13
5,ACCCCCCC,-0.401
6,ACCCCGGC,0.153
7,CTCAAGTA,-0.327
8,AGGCCAGC,-0.149
9,GATAACGC,0.155
10,CAGATACA,-0.0526
11,CGATAACG,-0.00956
12,ACCAAAAT,0.0565
13,CATGCATC,0.205
14,CGCTGCCA,-0.0872
15,GTCTTTGA,-0.253
16,CCACGATC,-0.0143
17,ACGTTTAT,-0.133
18,AGCAGACG,0.016
19,TAGGTACA,-0.297
20,CAACATCA,0.0147
21,CCTGCGGA,0.259
22,CCCAGAAA,0.0174
23,GGGCAAAC,0.0305
24,TAGCCGGA,0.372
25,ACGTGTGG,-0.181

row,Sequence,PBM E-score
1,CTCGGCAC,0.292
2,CGTTCTGC,0.189
3,ACCAAGCC,-0.208
4,AGTTGTGG,0.0126
5,AAGGCTAC,-0.267
6,CCAAGCTA,-0.257
7,AAATAGAG,-0.00426
8,CGGGAACA,0.358
9,AACGACAG,-0.162
10,GACGCCAA,-0.183
11,GAAGAGTA,-0.0638
12,AAACCGCT,-0.0883
13,ACATGGTC,-0.107
14,CCTGAGCC,-0.246
15,AGTTTAAT,0.0358
16,TCTTGGCA,-0.179
17,AATCTAAG,-0.105
18,AAACGAGC,-0.255
19,ACACGTCT,-0.195
20,ATTCACCA,-0.0576
21,CTTGTACA,-0.182
22,CTACACCA,-0.218
23,CCAACATC,0.174
24,CAGATTGA,0.0242
25,CAATAGTG,0.0261

row,Sequence,PBM E-score
1,GGTGGAGA,-0.137
2,CTGGTGAC,-0.0564
3,GGAAAGCA,0.127
4,CGACTTAA,-0.246
5,CGAACTGC,0.0677
6,AGAAACTG,-0.0776
7,CTCCTGCC,-0.0778
8,GGCAATAA,0.0401
9,TGTCGAAA,-0.0353
10,AGTAAGGG,0.168
11,ATCTAGTG,-0.157
12,CATCCGTA,0.282
13,CACACGTG,-0.101
14,GAGCACCA,-0.122
15,CCGCCAAG,0.0446
16,CGCCTGGC,-0.0374
17,ACAAGACG,0.0178
18,AGGGGTGG,0.00354
19,GATCAAGC,-0.00835
20,CAAGACTG,-0.284
21,ACAAATCT,-0.107
22,ATACCATG,-0.0983
23,AGGAATAA,0.0341
24,CCGATTTA,0.231
25,ACCTAAGA,-0.219

row,Sequence,PBM E-score
1,ATTGGAAG,-0.152
2,GCACAATA,-0.23
3,GATGCGAA,-0.0214
4,ATGTATCC,0.0403
5,ACCCTGCC,-0.0819
6,GGCTCGCA,0.0301
7,AAGGCCGA,0.221
8,ACCTACGC,-0.0495
9,AGCTGACC,0.0186
10,CGCGAACG,0.0855
11,CGGCCTCC,0.127
12,GAATAGGC,0.155
13,AAACGATC,-0.201
14,AGGGCACA,-0.16
15,GATCCTCA,0.138
16,AGCATGAT,-0.161
17,GGGATCCC,0.374
18,ATGCCAGC,-0.22
19,CAGTCTCA,-0.0367
20,AGTAACAT,0.0785
21,ATGGACGC,0.0671
22,AGACGTAG,-0.233
23,ATAAACCA,-0.187
24,ATCGCCTC,-0.0179
25,ACTGCCGG,0.325

row,Sequence,PBM E-score
1,AAAGTATC,0.108
2,GGGATGAA,0.137
3,AAAACTTC,-0.029
4,AGTGCTTC,-0.102
5,GAAGGTGA,0.136
6,ACTACTGA,-0.0877
7,AGCATTAC,-0.242
8,GAGGCATA,0.174
9,CATTTCAA,-0.105
10,GCTGGAAA,0.0777
11,TGCCTGAA,-0.305
12,AATCTCCG,0.322
13,AGGAATAG,-0.072
14,CTCGGCCC,0.0837
15,ACTCACAG,-0.148
16,CTCCGATC,0.212
17,CGTAGGCA,-0.214
18,AATGGCTC,0.00647
19,CCACAATA,-0.0242
20,CTAATTGA,-0.13
21,GCAATCGC,-0.0755
22,ATTGTCTA,0.102
23,ATCTGATA,-0.18
24,GCATACCC,0.0554
25,CTCTGCCA,-0.221

row,Sequence,PBM E-score
1,CTCGGACA,0.285
2,CCTAACTC,-0.137
3,CAAACGTC,-0.105
4,GCTCGTTA,-0.139
5,ATAACAAC,0.063
6,ATATTAAC,0.137
7,CGCGGTAG,0.282
8,GCTACAGA,-0.282
9,CCTGACCA,-0.0932
10,CAGACTTA,-0.389
11,GCGACAAA,0.0295
12,ACACTGAA,0.0405
13,ATCTCAAA,0.0575
14,GATATCAA,0.069
15,GAACTGCA,-0.0307
16,TGTGGCAA,0.0784
17,GACTCCAA,-0.212
18,CAAGACTA,-0.316
19,CATGGGAG,-0.124
20,GCGGTAAA,0.25
21,ACCTCCCC,0.0305
22,CCCGCCCG,0.372
